# In EP1076704B1 (AiCuris GmbH & Co. KG, dated 2007):
# T1: high affinity IL-2 receptor IL-2Rαβγ on human PHA-blasts (activated T cells) (human, UniProt P01589 22-272; P14784 27-551; P31785 23-369)
# T1 sequence (looked up) 1: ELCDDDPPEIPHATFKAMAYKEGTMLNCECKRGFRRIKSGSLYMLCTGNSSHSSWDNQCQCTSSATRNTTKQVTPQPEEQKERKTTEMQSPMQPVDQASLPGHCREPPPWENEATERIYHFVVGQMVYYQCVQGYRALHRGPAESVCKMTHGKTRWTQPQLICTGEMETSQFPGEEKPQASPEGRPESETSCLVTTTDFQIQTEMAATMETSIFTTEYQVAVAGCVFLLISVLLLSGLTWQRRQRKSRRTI
# T1 sequence (looked up) 2: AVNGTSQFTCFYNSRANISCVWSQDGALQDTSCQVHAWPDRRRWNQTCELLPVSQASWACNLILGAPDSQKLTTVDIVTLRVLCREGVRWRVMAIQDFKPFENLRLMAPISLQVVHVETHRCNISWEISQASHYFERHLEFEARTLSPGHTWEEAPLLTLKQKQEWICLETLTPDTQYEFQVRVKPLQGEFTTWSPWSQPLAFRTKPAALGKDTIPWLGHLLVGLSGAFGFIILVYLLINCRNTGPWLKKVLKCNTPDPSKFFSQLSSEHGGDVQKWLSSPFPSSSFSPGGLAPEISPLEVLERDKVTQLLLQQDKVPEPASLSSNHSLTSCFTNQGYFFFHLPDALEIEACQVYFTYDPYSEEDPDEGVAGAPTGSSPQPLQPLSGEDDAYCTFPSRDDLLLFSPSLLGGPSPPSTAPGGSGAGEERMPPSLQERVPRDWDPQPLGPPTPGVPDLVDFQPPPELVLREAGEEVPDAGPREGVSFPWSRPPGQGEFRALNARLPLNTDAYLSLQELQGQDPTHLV
# T1 sequence (looked up) 3: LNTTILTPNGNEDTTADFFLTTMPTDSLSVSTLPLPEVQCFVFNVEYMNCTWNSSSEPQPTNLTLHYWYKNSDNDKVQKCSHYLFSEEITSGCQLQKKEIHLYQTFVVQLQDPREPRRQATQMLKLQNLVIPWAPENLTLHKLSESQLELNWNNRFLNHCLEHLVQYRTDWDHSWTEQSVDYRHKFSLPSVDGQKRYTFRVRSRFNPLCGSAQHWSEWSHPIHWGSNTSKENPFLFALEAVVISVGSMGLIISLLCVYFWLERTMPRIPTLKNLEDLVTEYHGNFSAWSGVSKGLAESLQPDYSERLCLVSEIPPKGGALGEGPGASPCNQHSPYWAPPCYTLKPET
# T2: intermediate affinity IL-2 receptor IL-2Rβγ on human NK cells (human, UniProt P14784 27-551; P31785 23-369)
# T2 sequence (looked up) 1: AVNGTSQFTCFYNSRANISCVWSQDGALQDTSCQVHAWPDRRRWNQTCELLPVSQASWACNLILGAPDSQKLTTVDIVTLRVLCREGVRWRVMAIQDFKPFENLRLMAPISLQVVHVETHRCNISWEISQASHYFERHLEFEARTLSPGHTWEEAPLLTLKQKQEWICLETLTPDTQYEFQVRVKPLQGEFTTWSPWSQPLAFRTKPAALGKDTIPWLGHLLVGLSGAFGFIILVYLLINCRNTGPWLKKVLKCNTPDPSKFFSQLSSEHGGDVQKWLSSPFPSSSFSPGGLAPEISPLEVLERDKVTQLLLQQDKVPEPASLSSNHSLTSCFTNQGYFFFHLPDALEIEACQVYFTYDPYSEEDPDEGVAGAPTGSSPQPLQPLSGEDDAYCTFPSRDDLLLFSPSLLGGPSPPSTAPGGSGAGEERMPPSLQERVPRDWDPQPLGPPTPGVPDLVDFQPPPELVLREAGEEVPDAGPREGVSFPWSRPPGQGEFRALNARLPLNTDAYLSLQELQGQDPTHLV
# T2 sequence (looked up) 2: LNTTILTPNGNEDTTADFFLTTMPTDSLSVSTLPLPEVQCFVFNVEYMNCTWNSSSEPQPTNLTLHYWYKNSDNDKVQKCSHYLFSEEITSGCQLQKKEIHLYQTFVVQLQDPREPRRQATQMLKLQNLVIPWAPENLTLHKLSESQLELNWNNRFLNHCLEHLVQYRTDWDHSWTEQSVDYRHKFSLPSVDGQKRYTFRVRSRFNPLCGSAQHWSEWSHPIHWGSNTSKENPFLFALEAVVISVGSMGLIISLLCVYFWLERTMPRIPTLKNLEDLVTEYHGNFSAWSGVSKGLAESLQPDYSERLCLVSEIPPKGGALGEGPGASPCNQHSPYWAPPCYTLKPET
# How the values were obtained:
# Assay in all cases: cell-based or functional assay
# [1] = target: T1, high affinity IL-2 receptor IL-2Rαβγ on …
# [2] = target: T2, intermediate affinity IL-2 receptor …
# [3] = target: T1, high affinity IL-2 receptor IL-2Rαβγ on …; remark: listed apart in the source
# [4] = target: T2, intermediate affinity IL-2 receptor …; remark: listed apart in the source
binder,measurement,setting,value
human IL-2 mutein D20I (ligand) not shown,"EC50, T cell (PHA-blast) proliferation assay (Fig. 2A)",[1],~150 pM
same,"EC50, NK cell proliferation assay (Fig. 2B)",[2],~5 µM
same,"relative activity, T cell (PHA-blast proliferation; EC50 against EC50 of wt IL-2)",[3],4.6 relative to wt IL-2
same,"relative activity, NK cell (NK cell proliferation; EC50 against EC50 of wt IL-2)",[4],0.00061 relative to wt IL-2
human IL-2 mutein Q126L (ligand) not shown,"EC50, T cell (PHA-blast) proliferation assay (Fig. 7A)",[1],~20 pM
same,"EC50, NK cell proliferation assay (Fig. 7B)",[2],~20 nM
same,"relative activity, T cell (PHA-blast proliferation; EC50 against EC50 of wt IL-2)",[3],3.06 relative to wt IL-2
same,"relative activity, NK cell (NK cell proliferation; EC50 against EC50 of wt IL-2)",[4],0.00447 relative to wt IL-2
human IL-2 mutein Q126E (ligand) not shown,"EC50, T cell (PHA-blast) proliferation assay (Fig. 6A)",[1],~0.8 pM
same,"EC50, NK cell proliferation assay (Fig. 6B)",[2],~2 nM
same,"relative activity, T cell (PHA-blast proliferation; EC50 against EC50 of wt IL-2)",[3],10 relative to wt IL-2
same,"relative activity, NK cell (NK cell proliferation; EC50 against EC50 of wt IL-2)",[4],0.025 relative to wt IL-2
human IL-2 mutein N88R (ligand) not shown,"EC50, T cell (PHA-blast) proliferation assay (Fig. 5A)",[1],~90 pM
same,"EC50, NK cell proliferation assay (Fig. 5B)",[2],~300 nM
same,"relative activity, T cell (PHA-blast proliferation; EC50 against EC50 of wt IL-2)",[3],0.897 relative to wt IL-2
same,"relative activity, NK cell (NK cell proliferation; EC50 against EC50 of wt IL-2)",[4],0.00015 relative to wt IL-2
human IL-2 mutein N88G (ligand) not shown,"EC50, T cell (PHA-blast) proliferation assay (Fig. 3A)",[1],~5 pM
same,"EC50, NK cell proliferation assay (Fig. 3B)",[2],~30 nM
same,"relative activity, T cell (PHA-blast proliferation; EC50 against EC50 of wt IL-2)",[3],8.33 relative to wt IL-2
same,"relative activity, NK cell (NK cell proliferation; EC50 against EC50 of wt IL-2)",[4],0.00853 relative to wt IL-2
human IL-2 mutein N88I (ligand) not shown,"EC50, T cell (PHA-blast) proliferation assay (Fig. 4A)",[1],~400 pM
same,"EC50, NK cell proliferation assay (Fig. 4B)",[2],~5 µM
same,"relative activity, T cell (PHA-blast proliferation; EC50 against EC50 of wt IL-2)",[3],0.981 relative to wt IL-2
same,"relative activity, NK cell (NK cell proliferation; EC50 against EC50 of wt IL-2)",[4],0.0001 relative to wt IL-2
human IL-2 mutein D20H (ligand) not shown,"EC50, T cell (PHA-blast) proliferation assay (Fig. 1A)",[1],~200 pM
same,"EC50, NK cell proliferation assay (Fig. 1B)",[2],> 10000 nM
same,"relative activity, T cell (PHA-blast proliferation; EC50 against EC50 of wt IL-2)",[3],0.371 relative to wt IL-2
same,"relative activity, NK cell (NK cell proliferation; EC50 against EC50 of wt IL-2)",[4],9e-05 relative to wt IL-2
wild-type human IL-2 (ligand) not shown,"EC50, T cell (PHA-blast) proliferation assay (Fig. 1A)",[1],~150 pM
same,"EC50, T cell (PHA-blast) proliferation assay (Fig. 2A)",[1],~150 pM
same,"EC50, T cell (PHA-blast) proliferation assay (Fig. 3A)",[1],~40 pM
same,"EC50, T cell (PHA-blast) proliferation assay (Fig. 4A)",[1],~150 pM
same,"EC50, T cell (PHA-blast) proliferation assay (Fig. 5A)",[1],~150 pM
same,"EC50, T cell (PHA-blast) proliferation assay (Fig. 6A)",[1],~8 pM
same,"EC50, T cell (PHA-blast) proliferation assay (Fig. 7A)",[1],~50 pM
same,"EC50, NK cell proliferation assay (Fig. 1B)",[2],~0.1 nM
same,"EC50, NK cell proliferation assay (Fig. 2B)",[2],~0.0003 µM
same,"EC50, NK cell proliferation assay (Fig. 3B)",[2],~0.2 nM
same,"EC50, NK cell proliferation assay (Fig. 4B)",[2],~0.0001 µM
same,"EC50, NK cell proliferation assay (Fig. 5B)",[2],~0.1 nM
same,"EC50, NK cell proliferation assay (Fig. 6B)",[2],~0.05 nM
same,"EC50, NK cell proliferation assay (Fig. 7B)",[2],~0.08 nM
same,"relative activity, T cell (PHA-blast proliferation; EC50 against EC50 of wt IL-2)",[3],1 relative to wt IL-2
same,"relative activity, NK cell (NK cell proliferation; EC50 against EC50 of wt IL-2)",[4],1 relative to wt IL-2
